Reference: PubChem BioAssay (NCI)
A structure can be active in one record and inactive in another.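 Interpretation: 100, growth as untreated; towards 0, rising growth inhibition; 0, no net growth; 0 to -100, cell death. Compounds scoring below 10 were considered active.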 Certain results were filed several times, with different values. They are shown here; other results are not. An entry can have further records. This drug was run again and again over the years, at its own concentration, as given; one value stands for one run. Additions like (4×) say how often a value occurs here.

Experiments:
Experiment in all cases: NCI-60 one-dose screen, 48 h (100 = growth as untreated, 0 = no growth, -100 = all killed)
SK-MEL-2 melanoma = details: 2.5 mM
EKVX NSCLC = details: 2.5 mM
SN12C renal = details: 2.5 mM; runs of 1991

O=c1[nH]cc(F)c(=O)[nH]1
growth (SK-MEL-2 melanoma; runs of 1997): inactive: 50.4, 15.9, 18, 64.1, 45.7, 30, 65.3, 45.1 (2×), 35.8, 37.6, 50.9, 42.7, 40.4, 44.7, 31.1, 44.5, 64.6, 25.4, 44.6, 17.1, 54.5, 44.1, 18.3, 33.9, 12.6, 28.3, 18.6, 51.7, 24, 33.1, 34.7, 48.1, 66.4, 35.6, 50.3, 51.9, 47.1, 37.8, 41.9, 40.6% and active: 7.02%, -28.1%, 7.47%
growth (SK-MEL-2 melanoma; runs of 1998): inactive: 38.1, 54 (2×), 47.9, 44.3, 19, 26.8, 51.8, 19.6, 42, 56.6, 63.2, 49, 46.5, 49.4, 33.2, 34.6, 40.6% and active: 1.45, 8.74, -0.394, -15%
growth (SK-MEL-2 melanoma; runs of 1999): active: 6.87, -17.1, -30.7, -15.9, -19.4, 0.761, -62.2, -0.215, -63.8, -53.7, -50.4, -55.7, -44.2, -64.9% and inactive: 54.6, 51.1, 46.3, 26%
growth (SK-MEL-2 melanoma; runs of 2000): active: -54.5, -42.3, -3.37, -56%
growth (EKVX NSCLC; runs of 1991): inactive: 29.7, 50.9, 58.7, 64.2, 53.2, 57.3, 34.2, 37.8, 33.1, 46.7, 51.4, 25.1, 50, 28.9, 43, 44.6, 42, 57.7, 63.8%
growth (EKVX NSCLC; runs of 1992): inactive: 55.5, 45.9, 53.6, 79, 53.5 (2×), 43.6, 56.3, 37.6, 51.9, 33.2, 50.7 (3×), 41.6 (2×), 38, 43.7, 51, 37.4, 44.1, 63.2, 16.5 (2×), 64, 46.8, 72.3, 41.5, 20.8, 49.3, 45.3, 50.3, 51.3, 40.3, 47.1, 67.4, 75.2, 28.2, 63.6, 72.8, 58.2, 62.6, 91.2, 66.8, 61.7, 42.5, 65.5, 26.7, 49.1, 49.6, 52.6, 47.8, 54.8, 52.4, 66.7, 64.9, 127, 31.8, 38.9, 40.7, 50, 49.4, 51.4, 49.5, 40.1, 61.5, 84.4, 65.8, 93.1, 63.5, 26.8, 26.1, 24.7, 29.3, 44.5, 42.8, 64.4, 54.9, 55.2 (2×), 62.2, 59.8, 77.4, 50.1, 49, 70.9, 56.4, 38.8, 45.7 (2×), 45.4, 48, 40.8, 42.7, 53.1, 48.4, 50.8, 71.6, 31.9, 41.1, 101, 56.5, 43.1, 41.3, 57.4, 37.8, 36.7, 38.6, 68.7, 44.6, 36% and active: -27.1%, -54.9%
growth (EKVX NSCLC; runs of 1993): inactive: 43.4, 41.9, 19, 48.3, 85.8, 47.1 (2×), 68.6, 24.8, 46.9, 78.9, 57.8, 61.9, 71.1, 35.3, 39.6, 48.8, 44.7, 54.2, 56.7, 49.9, 46.5, 33.5, 63.8, 42, 42.7, 23.7, 56.5, 57.7, 26.6, 34, 45.8 (2×), 40.3, 72.5, 99.2, 53.1, 27.7, 50.4, 59.9, 47.5, 61.6, 49.4%
growth (EKVX NSCLC; runs of 1994): inactive: 51.8, 32.6, 52.7, 61.8, 62, 34.8, 59.7, 63, 44.5, 23.6, 45.4, 39.7, 63.6, 37.2, 50.7, 26.5, 55, 53.4, 61.1, 43, 54.5, 37, 52.8, 44.1, 59, 53.2, 37.5, 48.2, 33.5, 52.5%
growth (EKVX NSCLC; runs of 1995): inactive: 45.2, 35.3, 47.8, 47.6, 30.7, 61.9, 63.2, 34.2, 49.9 (2×), 48.6, 43.1, 48, 45.6, 51.5, 58, 60.9, 40.6, 70.6, 26.1, 53.3, 49, 50.2, 55.8, 40.5, 33.5, 62.9, 31.6, 32.2, 44.6, 38.3, 62.2, 50.3, 42.1, 36.2, 47.3, 72.6%
growth (EKVX NSCLC; runs of 1996): inactive: 30.1, 15.2, 57.8 (2×), 18.4, 53.3, 51.9, 37.6, 53.6, 42.5, 35.6, 47.2, 39.8, 42.4, 46.1, 40.9, 35.7, 49.6, 51, 29.4, 47.3, 58.1 (2×), 42, 44.5, 50, 46.6, 29.6, 51.4, 39.5, 26.8, 43.1 (2×), 31.6, 42.2, 46.9, 31, 34.5, 43.2, 42.8, 47, 47.5, 44.2, 76.3, 48.2, 32.4, 41.5, 46.2, 45.2, 65, 68.7, 74.9, 68.1, 63.5, 56% and active: 9.72%, 4.01%, 9.41%
growth (EKVX NSCLC; runs of 1997): inactive: 39.9 (3×), 55, 44.9, 59.7, 48.1, 65.9, 26.3, 36.2, 44, 46.1, 44.2, 63.1, 61.1, 57.3, 41.8, 45.2, 51.8, 47.1, 47.5, 53.6, 47.8, 58.1, 66.6, 55.9, 28.8, 40.8, 26.6, 48.9, 24.2, 76.8, 109, 41.5, 38.6, 31.6, 29.7, 35.6, 36.5, 32.9, 30.6% and active: -3.58%, 9.99%
growth (EKVX NSCLC; runs of 1998): inactive: 62.8, 47.1, 77.1, 25.6, 58.5, 46.4, 50.2, 52.7, 46.8, 56.9, 65.1, 15.8, 28.6, 30.5, 40.8, 33.7, 50.3% and active: -28.1, 9.08, -6.61, -11.6, -4.23, -4.71%
growth (EKVX NSCLC; runs of 1999): inactive: 13.2, 37.7, 19.5, 36.2, 17.2, 50.3% and active: -31.7, 2.46, 1.23, 0.433, -100%
growth (EKVX NSCLC; runs of 2000): active: -86.6%, -23%, -19%
growth (SN12C renal): inactive: 40.9, 35.2, 36, 43.4, 39.9, 32.9 (2×), 33.2, 20.8, 25, 26.3, 38.2, 37.2, 33.9, 31.9, 29.3 (2×), 32.6, 83.2, 32.2%
